This note sets out measurements from publication PMC4336329 (PLoS ONE, 2015).

Structures are written as SMILES. Screen size: about 310,000 compounds; about 14,000 (4.5%) showed an effect of 50% or more. The effect is printed as a negative number. The list shows a part of the results.
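Further: peak tail current of the secondary pulse compared with the same well before compound.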

human ether-à-go-go-related gene (hERG) potassium channel, sequence (Q12809 whole entry, looked up): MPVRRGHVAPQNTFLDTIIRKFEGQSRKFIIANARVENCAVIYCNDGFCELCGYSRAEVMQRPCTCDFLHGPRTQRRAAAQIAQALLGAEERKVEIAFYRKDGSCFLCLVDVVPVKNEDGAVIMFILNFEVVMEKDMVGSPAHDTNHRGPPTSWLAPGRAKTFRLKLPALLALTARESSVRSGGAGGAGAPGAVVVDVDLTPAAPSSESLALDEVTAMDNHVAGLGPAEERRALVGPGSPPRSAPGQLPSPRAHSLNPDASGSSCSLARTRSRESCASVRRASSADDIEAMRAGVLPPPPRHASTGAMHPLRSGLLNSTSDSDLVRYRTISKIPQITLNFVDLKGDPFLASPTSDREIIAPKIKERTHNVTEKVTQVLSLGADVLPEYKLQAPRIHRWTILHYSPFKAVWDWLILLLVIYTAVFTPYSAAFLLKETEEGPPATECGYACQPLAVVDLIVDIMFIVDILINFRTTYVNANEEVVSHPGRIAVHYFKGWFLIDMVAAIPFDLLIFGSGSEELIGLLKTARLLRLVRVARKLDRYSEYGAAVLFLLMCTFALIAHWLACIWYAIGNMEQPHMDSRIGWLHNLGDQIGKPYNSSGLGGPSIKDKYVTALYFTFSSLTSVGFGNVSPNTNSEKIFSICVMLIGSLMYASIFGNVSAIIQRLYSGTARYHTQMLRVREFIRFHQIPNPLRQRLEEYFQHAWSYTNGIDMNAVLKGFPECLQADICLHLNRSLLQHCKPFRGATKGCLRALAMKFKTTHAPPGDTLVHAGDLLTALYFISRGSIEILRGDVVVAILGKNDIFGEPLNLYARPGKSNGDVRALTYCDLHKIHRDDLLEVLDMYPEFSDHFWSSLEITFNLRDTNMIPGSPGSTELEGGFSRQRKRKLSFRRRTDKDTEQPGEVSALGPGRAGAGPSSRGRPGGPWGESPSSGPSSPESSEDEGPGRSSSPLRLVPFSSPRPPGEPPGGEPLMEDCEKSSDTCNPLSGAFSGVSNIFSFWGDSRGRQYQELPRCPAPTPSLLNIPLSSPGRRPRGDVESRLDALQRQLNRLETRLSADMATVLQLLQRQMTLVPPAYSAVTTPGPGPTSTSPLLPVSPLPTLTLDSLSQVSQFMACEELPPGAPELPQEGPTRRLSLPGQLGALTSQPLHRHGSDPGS

The assay has as its target human ether-à-go-go-related gene (hERG) potassium channel (human, UniProt Q12809). Kind of assay: primary screen, population patch clamp on CHO cells stably expressing hERG.
As to `COc1ccccc1N1CCN(C(=O)C2CCCCN2S(=O)(=O)c2ccc(C)cc2)CC1.Cl` (centres unmarked), the “hERG current change (%, negative = inhibition) at 10uM” value is -15.7%.
Consider `CNc1ccc(Oc2c(F)c(F)nc(F)c2F)cc1`, for which the “hERG current change (%, negative = inhibition) at 10uM” value is -0.34%.
`CC(C)COc1ccc(C(=O)N/C(=C/c2cccc([N+](=O)[O-])c2)C(=O)O)cc1`: the “hERG current change (%, negative = inhibition) at 10uM” value stood at 15.6%.
With `O=C(NC1CCCCC1)C(c1ccncc1)N(C(=O)Cn1nnc(-c2cccs2)n1)C1CCCC1` (centres unmarked), the “hERG current change (%, negative = inhibition) at 10uM” value is given as -39%.
`COc1ccc(CNc2ccc3c(c2)CCC3)cc1OC`: the “hERG current change (%, negative = inhibition) at 10uM” value was 1.81%.
The result for `O=C(Oc1ccc2cc(Br)ccc2c1)N1CCCCCC1` reads 16.3%; that for `O=C(N/N=C/c1c(O)n(Cc2ccccc2)c(=O)[nH]c1=O)c1ccccc1O`, -11.3%; that for `CCCCn1c(N)c(N(CCC(C)C)C(=O)c2cc(S(=O)(=O)N3CCOCC3)ccc2F)c(=O)[nH]c1=O`, 2.05%.
With `CCCCN(C(=O)CSCC(=O)Nc1cccc(C)c1)c1c(N)n(CCCC)c(=O)[nH]c1=O`, the “hERG current change (%, negative = inhibition) at 10uM” value was 0.54%.
The result for `COc1ccc(NC(=O)c2ccccc2N(Cc2ccccc2)S(C)(=O)=O)c(OC)c1` reads -1.5%; that for `CN(CC(=O)NC1CCCCC1)S(=O)(=O)c1cccc2cccnc12`, -4.31%.
Take `O=C(c1ccc(NS(=O)(=O)c2ccc3[nH]c(=O)[nH]c3c2)cc1)N1CCN(c2ccccc2)CC1`: the “hERG current change (%, negative = inhibition) at 10uM” value amounted to 9.88%.
As to `O=c1c(C=NCc2ccccc2)c(NCc2ccccc2)nc2ccccn12`, the “hERG current change (%, negative = inhibition) at 10uM” value is given as 6.54%.
For the compound `COc1ccc(OC)c(N(CC(=O)Nc2ccccc2)S(=O)(=O)c2ccccc2)c1`, the “hERG current change (%, negative = inhibition) at 10uM” value was determined as 6.01%.
For `COc1ccccc1Nc1nc(=O)[nH]nc1C`, the “hERG current change (%, negative = inhibition) at 10uM” value amounted to 16.7%.
As to `CC(C)CC(=O)NC(=S)Nc1cc(C(=O)O)ccc1Cl`, the “hERG current change (%, negative = inhibition) at 10uM” value is given as 3.01%.
The result for `CCn1cc(CN2CCC(n3nccc3NC(=O)c3ccccc3C)CC2)c(C)n1` reads -37.9%; that for `O=C(/C=C/c1ccc2c(c1)OCO2)Nc1nncs1`, 9.93%; that for `O=C(CCCCl)OCc1cn(-c2ccc(Cl)cc2)nn1`, 13.3%.
The result for `CCc1ccc(NC(=S)/N=C(\N)Nc2nc(C)c3cc(CC)ccc3n2)cc1` reads -9.74%.
The result for `COc1ccc(-c2nn(-c3ccccc3)cc2/C=C2/SC(=S)N(CCC(=O)O)C2=O)c(C)c1` reads 13.1%.
Regarding `CCOC(=O)c1cc2ccc(OC(=O)c3ccco3)cc2oc1=O`, the “hERG current change (%, negative = inhibition) at 10uM” value was -8.19%.
For `O=C(CCN1C(=O)C2C3CCC(C3)C2C1=O)OCC(=O)c1ccc(Cl)cc1` (centres unmarked), the “hERG current change (%, negative = inhibition) at 10uM” value is -53.2%.
The result for `COc1cccc(NC(=O)CNC(=O)c2ccc(OC)c(OC)c2)c1` reads -0.0878%; that for `CCOc1ccccc1N1C(=O)NC(=O)C(CCc2ccncc2)(CCc2ccncc2)C1=O`, -29.6%.
Turning to `COC(=O)[C@H](C)NC(=O)Nc1cccc(C(F)(F)F)c1`, the “hERG current change (%, negative = inhibition) at 10uM” value was -5.83%.
The result for `CC(C)C(NS(=O)(=O)c1cccc2nsnc12)C(=O)NCc1ccc2c(c1)OCO2` (centres unmarked) reads -18.7%; that for `Cc1ccc(C)c(NC(=O)CSc2nnc([C@@H]3CCCN3C(=O)OC(C)(C)C)o2)c1`, -2.24%.
The result for `COC(=O)C1=C(C)N(C)C(=S)N(C)C1c1ccc(OC)cc1` (centres unmarked) reads -8.33%; that for `COc1ccc(N2CCN(CCCNC(=O)CC3Oc4ccc(C)cc4NC3=O)CC2)cc1` (centres unmarked), -55.5%; that for `CCOc1ccc(-c2cc(C(=O)NCCCN3CCN(CC)CC3)c3ccccc3n2)cc1`, -38%.
The result for `NC(=O)Cn1nnc(-c2ccccc2NC(=O)c2cnccn2)n1` reads 3.85%; that for `CC1CCN(C(=O)CN2C(=O)C(=O)N(C(C)C)C2=O)c2ccccc2S1` (centres unmarked), -4.64%; that for `Cc1ccc(CNC(=O)C2CCC(=O)N(CCc3ccccc3)C2)s1` (centres unmarked), -25.7%.
Regarding `CC1CN(C(=O)CCC(=O)NCc2cccnc2)c2ccccc2O1` (centres unmarked), the “hERG current change (%, negative = inhibition) at 10uM” value was -8.06%.
Regarding `O=S(=O)(c1ccc(S(=O)(=O)N2CCCN(Cc3ccccc3)C2)cc1)N1CCCCCC1`, the “hERG current change (%, negative = inhibition) at 10uM” value was found to be 10.6%.
Turning to `COc1ccc(CCNC(=O)C2c3ccccc3C(=O)N2CCC(C)C)cc1OC` (centres unmarked), the “hERG current change (%, negative = inhibition) at 10uM” value was 10.8%.
Consider `Cc1cnc(SCCc2ccncc2)nc1C.Cl`, for which the “hERG current change (%, negative = inhibition) at 10uM” value was 11.3%.
The result for `COc1ccc(NS(=O)(=O)c2ccc(NC(=S)NC(=O)CC(C)C)cc2)cc1` reads 7.48%.
The result for `Cc1ccc(/C=C/c2onc(C)c2S(=O)(=O)N2CCC(C(=O)N3CCCCC3)CC2)cc1` reads -9.38%.
With `CCCC1C(=O)N(Cc2ccccc2)C(=O)CC1C` (centres unmarked), the “hERG current change (%, negative = inhibition) at 10uM” value is 3.29%.
The result for `CC(=O)c1c(NCCc2ccccc2)nc(=S)n(-c2ccccc2)c1C` reads 7.04%; that for `NC(CO)(CO)CO.O=C(c1ccccc1)c1ccc2n1CCC2C(=O)O` (centres unmarked), -3.5%; that for `CCc1nc2ccccc2nc1N1CCN(S(=O)(=O)c2c(C)cc(Cl)cc2C)CC1`, 14.3%.
The result for `CCOC(=O)C(NC(=O)NCc1ccccc1OC)(OCC)C(F)(F)F` (centres unmarked) reads 2.09%; that for `COc1cc(C2=NOC(C(=O)Nc3ccc4c(c3)OCO4)C2)cc(OC)c1OC` (centres unmarked), 16.6%; that for `COc1ccc2nc(NC(=O)CSc3nc4cccnc4n3C)sc2c1`, 5.04%.
`CCc1ccc(OC(=O)/C=C/c2ccco2)cc1`: the “hERG current change (%, negative = inhibition) at 10uM” value came out at 3.07%.
The result for `CCCn1c(=O)c2c(nc(Br)n2CCC)n(C)c1=O` reads -1.31%.
The result for `CC(C)CCNC(=O)C1CCN(Cc2cccc(OCc3ccccc3)c2)CC1.O=C(O)C(=O)O` reads -50.8%; that for `O=C(c1cc(-c2ccncc2)nc2ccccc12)N1CCN(S(=O)(=O)/C=C/c2ccccc2)CC1`, -66.6%.
The result for `COc1ccccc1N1CCN(C(=O)COc2ccc(C)cc2Br)CC1` reads -17.8%; that for `S=C(Nc1ccccc1)N1CCOCCOCCN(C(=S)Nc2ccccc2)CCOCCOCC1`, -23.4%; that for `O=C(Nc1ccc(N2CCN(C(=O)c3cccs3)CC2)c(Cl)c1)c1cccnc1`, -20.6%.
With `CCCS/C(N)=N/N=C/c1ccccc1O`, the “hERG current change (%, negative = inhibition) at 10uM” value is listed as -6.67%.
Take `CCOC(=O)CCNCC1COc2ccccc2O1.Cl` (centres unmarked): the “hERG current change (%, negative = inhibition) at 10uM” value is listed as -1.63%.
The result for `Cn1nnnc1SCc1ccc(Cl)cc1` reads 21.8%.
In the case of `COc1ccccc1C(=O)NCCNC(=O)c1ccco1`, the “hERG current change (%, negative = inhibition) at 10uM” value is listed as 17.4%.
`COc1ccc(NS(=O)(=O)c2cccc(C(=O)N/N=C/c3cn(-c4ccccc4)nc3-c3ccccc3)c2)cc1`: the “hERG current change (%, negative = inhibition) at 10uM” value came out at 10.2%.
Take `Cc1cccc(C)c1NC(=O)CNC(=O)CNC(=O)Cc1cccc2ccccc12`: the “hERG current change (%, negative = inhibition) at 10uM” value stood at 4.51%.
The result for `COc1cc(-c2onc3ccc(Br)cc23)cc(OC)c1OC` reads 0.245%; that for `COc1nc(Nc2ccc([N+](=O)[O-])cc2)nc(NC(C)C)n1`, -2.54%.
The result for `CS(=O)(=O)N(C(=O)NC(=O)NC12CC3CC(CC(C3)C1)C2)C1CCCCC1` reads 13.5%; that for `Cc1ccnc(NS(=O)(=O)c2ccc(NC(=O)C3CC3)cc2)n1`, 18.5%; that for `CCN(CCNC(=O)C1CCCN(S(=O)(=O)c2cnc[nH]2)C1)c1ccccc1` (centres unmarked), 4.35%.
In the case of `O=C(NCCCNC(=O)c1ccccn1)c1cccc(F)c1`, the “hERG current change (%, negative = inhibition) at 10uM” value was -0.38%.
Consider `COc1ccc(NC(=O)CSc2nc3ccc(Nc4nc(N5CCOCC5)nc(N5CCOCC5)n4)cc3s2)cc1`, for which the “hERG current change (%, negative = inhibition) at 10uM” value was 0.736%.
In the case of `COc1ccc(CC(=O)OCC(=O)NCC2CCCO2)cc1OC` (centres unmarked), the “hERG current change (%, negative = inhibition) at 10uM” value is reported as 9.33%.
Consider `COc1ccc(S(=O)(=O)Nc2ccccc2)cc1`, for which the “hERG current change (%, negative = inhibition) at 10uM” value is reported as -5.64%.
Consider `Cc1cccc(N2CCN(C(=O)C3CCN(c4nnc(-n5cccc5)s4)CC3)CC2C)c1` (centres unmarked), for which the “hERG current change (%, negative = inhibition) at 10uM” value is recorded as -55.8%.
As for `Cc1ccc(C(=O)N/C(=C\c2ccco2)C(=O)NCCCN2CCOCC2)cc1C`, the “hERG current change (%, negative = inhibition) at 10uM” value was -12.7%.
The result for `CCOC(=O)N1CCC(N(CCOC)C(=O)Nc2ccc(CC)cc2)CC1` reads -35.8%; that for `O=C(CNS(=O)(=O)c1ccc(F)cc1)N1CCN(c2ccc(F)cc2)CC1`, -51.7%.
The result for `COC(=O)c1ccc(NC(=O)CNS(=O)(=O)c2cccs2)cc1` reads -1.02%; that for `CCN=C1SC(CC(=O)Nc2ccc(C)cc2)C(=O)N1CC` (centres unmarked), 9.15%; that for `COc1ccc(N(CC(=O)NC2CCCCC2C)S(=O)(=O)c2c(C)nn(C)c2C)cc1` (centres unmarked), -15.5%.
Regarding `Cc1cc2oc(C(=O)Nc3cccnc3)c(C)c2cc1C`, the “hERG current change (%, negative = inhibition) at 10uM” value is reported as -8.46%.
The result for `CCCCNC(=S)N(C)/N=C/c1sc(N2CCCCC2)nc1-c1cccs1` reads 14.4%.
On to `Cc1csc(SC(C)C(=O)Nc2ccccc2C)n1` (centres unmarked), for which the “hERG current change (%, negative = inhibition) at 10uM” value was -11.3%.
Consider `CC(=O)Nc1ccc(S(=O)(=O)N2CCC(NC(=O)c3ccccc3)CC2)cc1`, for which the “hERG current change (%, negative = inhibition) at 10uM” value is given as 22.2%.
`Cn1c(SCC(=O)Nc2ccc3cn[nH]c3c2)nnc1-c1cccs1`: the “hERG current change (%, negative = inhibition) at 10uM” value is reported as -24.9%.
Take `O=C(Cn1nc(-c2cccs2)ccc1=O)Nc1ccc(Br)cc1`: the “hERG current change (%, negative = inhibition) at 10uM” value was -28.5%.
As for `CCOc1ccc(-c2nc(C#N)c(NC3CC3)o2)cc1`, the “hERG current change (%, negative = inhibition) at 10uM” value is on record as -2.09%.
The result for `CCOC(=O)C1CCN(C(=O)c2ccc3c(c2)NC(=O)/C(=C/c2ccccc2)S3)CC1` reads -8.86%; that for `Cc1ccc(CN(C(=O)c2ccccc2C)C2CCS(=O)(=O)C2)o1` (centres unmarked), -0.796%.
As to `CCOc1ccc(NC(=O)CN2C(=O)C(C)SC(C)C2=O)cc1` (centres unmarked), the “hERG current change (%, negative = inhibition) at 10uM” value was -9.77%.
